In general, % Inhibition refers to the relative decrease from the control value, in per cent.

Screen size: about 150,000 compounds; about 540 (0.36%) showed an effect of 50% or more. This is one part of the list.

The assay deals with Plasmodium falciparum. Kind of assay: Primary screen in NF54 nanoGlo assay, in single point, at 2uM, 72h; a lower Z score goes with more inhibition. In kind it is functional, Erythrocyte. Conditions: timepoint 72 hour.
Regarding `Cc1ccc(C)c(NC(=O)c2cnn3c4c(cnc23)CCCCC4)c1`, the “% Inhibition” value is -7% and the Z score came out at 1.13.

Turning to `Cc1nccc(C(=O)N2CCN(C)C[C@@H]2C)n1`, the “% Inhibition” value was -11% and the Z score worked out at 1.72.

In the case of `CC(C)N1CCC(c2nc([C@]3(c4ccc(F)cc4)CCOC3)no2)CC1`, the “% Inhibition” value is -18% and the Z score turned out to be 2.47.

On to `Nc1nccc(N2CC[C@H]3[C@H](CCC(=O)N3CCc3ccccc3)C2)n1`, for which the “% Inhibition” value was -16% and the Z score stood at 1.45.

For the compound `Cc1ccc(CNC(=O)c2c[nH]c(-c3ccc(F)cc3)n2)cc1`, the “% Inhibition” value is on record as -14% and the Z score is 1.96.

On to `Cc1ncsc1CN(C)Cc1nnc(-c2cccs2)o1`, for which the “% Inhibition” value is reported as -9% and the Z score is 1.44.

Take `COc1ccccc1[C@@H](C)CC(=O)OCc1nc2cc(C(F)(F)F)ccc2o1`: the “% Inhibition” value is -2% and the Z score stood at 0.2.

With `CC(C)NC(=O)N(Cc1c(-c2ccccc2F)noc1N1CCOCC1)C1CC1`, the “% Inhibition” value worked out at 2% and the Z score was -0.18.

Turning to `CO[C@H]1COCC[C@@H]1NC(=O)c1cc(C)oc1C`, the “% Inhibition” value is listed as -14% and the Z score is 1.67.

As for `Cc1ccc2oc(-c3noc(C(=O)NCC4CCN(Cc5ccccc5F)CC4)n3)c(C)c2c1`, the “% Inhibition” value is -16% and the Z score was determined as 1.87.

`OCCCN1CCN(c2ncc3c(n2)CCN3c2ccccc2)CC1`: the “% Inhibition” value came out at 3% and the Z score was -0.39.

Regarding `COc1ccc(C(=O)N2CCCC2)c(OC2CCN(CC[C@H](C)c3ccccc3)CC2)c1`, the “% Inhibition” value was -2% and the Z score is recorded as 0.3.

On to `N#C[C@]1(NC(=O)c2cc(F)c(F)cc2F)CCc2ccccc2C1`, for which the “% Inhibition” value is given as -5% and the Z score came out at 0.81.

Turning to `Cc1cccc(NC(=O)c2sccc2S(=O)(=O)N2CCc3ccccc3C2)c1C`, the “% Inhibition” value is recorded as -9% and the Z score is on record as 1.75.

Consider `COc1ccc(C(=O)N2CCN(Cc3c(-c4cccc(OC)c4)nc4ccc(-c5cccc(C(F)(F)F)c5)cn34)CC2)cc1`, for which the “% Inhibition” value turned out to be 1% and the Z score was -0.16.

For `O=C(C1CCCC1)N1CCN(c2nc(-c3ccccc3Cl)nc3cc(Cl)ccc23)CC1`, the “% Inhibition” value is 0% and the Z score is -0.01.

On to `O=C(Cc1ccccc1)[C@H]1CCCN(C(=O)CCc2ccco2)C1`, for which the “% Inhibition” value was -21% and the Z score turned out to be 4.07.

Consider `CN(Cc1nc2ccccc2n1C)C(=O)c1cc(COc2ccccc2)[nH]n1`, for which the “% Inhibition” value amounted to 1% and the Z score is -0.23.

On to `c1cncc(CN(Cc2ccc3c(c2)OCO3)Cc2cccc3nsnc23)c1`, for which the “% Inhibition” value is listed as -2% and the Z score amounted to 0.32.

Take `Cc1noc(C)c1NC(=O)[C@@H]1Cc2ccccc2O1`: the “% Inhibition” value was -4% and the Z score stood at 0.61.

As to `Cc1ccc(C2=NC3(CCCCCC3)NC2=O)cc1`, the “% Inhibition” value is given as -10% and the Z score amounted to 1.48.

Turning to `CCc1nnc(CNC(=O)[C@H](CC)n2c(CC)nc3ccccc32)s1`, the “% Inhibition” value is on record as -12% and the Z score is listed as 2.19.

With `CCCC[C@H]1C(=O)NCCN1C(=O)c1oc2c(Cl)cccc2c1C`, the “% Inhibition” value is -5% and the Z score worked out at 0.87.

On to `Cc1cccc(NC(=O)[C@@H]2CC[C@H](C(=O)O)C2)c1`, for which the “% Inhibition” value is listed as -14% and the Z score was 1.8.

Turning to `COc1nccc(NC(=O)NC2(c3nccs3)CCCC2)n1`, the “% Inhibition” value was -4% and the Z score is listed as 0.64.

`CCn1nc([C@H]2CCOC2)nc1CCc1ccccc1F`: the “% Inhibition” value is -1% and the Z score is given as 0.12.

With `Cc1nnsc1C(=O)NCc1nc(N(C)C)nc(N(C)C)n1`, the “% Inhibition” value was -22% and the Z score was found to be 2.82.

In the case of `C[C@H](NCCCc1cccnc1)C(=O)NC1CCCC1`, the “% Inhibition” value is reported as -9% and the Z score worked out at 1.56.

`CCOc1ccc(-c2c(C)n[nH]c2NC(=O)CCc2ccccc2)cc1OCC`: the “% Inhibition” value was -5% and the Z score was 0.86.

On to `CC1(CNc2ccc(Cc3nnc4n3CCC4)cc2)COC1`, for which the “% Inhibition” value is given as -3% and the Z score was 0.47.

On to `Cc1cc(CN(C)C(=O)c2csc(C(C)(C)C)n2)no1`, for which the “% Inhibition” value is listed as -8% and the Z score came to 1.15.

With `COc1cccc([C@H]2CN(C(=O)c3ccc4cc[nH]c4c3)C[C@@H]2N)c1`, the “% Inhibition” value was 13% and the Z score is on record as -1.7.

On to `Nc1noc2cccc(Br)c12`, for which the “% Inhibition” value turned out to be 2% and the Z score is recorded as -0.28.

With `COc1nccn2c(CNC(=O)Cc3ccccc3)nnc12`, the “% Inhibition” value was -8% and the Z score came to 1.41.

On to `O=S(=O)(Nc1ccc2c(c1)CCCN2S(=O)(=O)c1ccccc1)c1cccs1`, for which the “% Inhibition” value is -3% and the Z score was found to be 0.62.

With `COc1ccc(F)cc1CC(=O)N1CCC[C@H](C2CC2)C1`, the “% Inhibition” value is listed as -2% and the Z score was found to be 0.26.

For `COCC(=O)Nc1cc(C(=O)N[C@@H](C)c2csc(C)n2)c2c(c1)nc(C1CCC1)n2C`, the “% Inhibition” value is on record as 10% and the Z score is on record as -1.27.

As to `CCn1ccc(C(=O)N2CC[C@H](Cc3nc4cccnc4n3CC(C)C)C2)n1`, the “% Inhibition” value is reported as -8% and the Z score worked out at 1.27.

Turning to `COCCNC1=Nc2ccccc2CN[C@]12CCN(C(=O)COc1ccc(F)c(F)c1)C2`, the “% Inhibition” value is on record as -6% and the Z score was 0.95.

Turning to `Cc1cnn(CCCN2C[C@@](C)(c3ccccc3)CCC2=O)c1`, the “% Inhibition” value worked out at 1% and the Z score is reported as -0.17.

Consider `O=C(O)c1cccnc1NCC1(N2CCN(c3ccccc3)CC2)CCOCC1`, for which the “% Inhibition” value is given as -6% and the Z score is 1.06.

Turning to `CC1OCCC1NC(=O)NCCc1nc2cc(Cl)ccc2n1C` (centres undefined), the “% Inhibition” value was -1% and the Z score turned out to be 0.08.

(Values after ChEMBL document CHEMBL4888484, “Replenishing the malaria drug discovery pipeline: Screening and hit evaluation of the MMV Hit Generation Library 1 (HGL1) against asexual blood stage Plasmodium falciparum ,using a nano luciferase reporter read-out” (2022).)
